Laboratory results: US9127038B2, “Kisspeptide-pentasaccharide conjugates” (Merck Sharp & Dohme Corp., priority 2011, dated 2015)
At least one structure is not confirmed: it was looked up by name or label, or the drawing left a doubt.

Biological target: T1, human KISS-receptor (Homo sapiens, UniProt Q969F8)
T1 construct: expressed in transfected cells; host or cells: CHO-k1 cells that also express mitochondrially targeted aequorin, Gα16 and an NFAT-luciferase reporter
Assay: NFAT-regulated luciferase reporter gene assay in CHO-k1 cells, agonist activity
Type: cell-based
Details: for pEC50: absence of human serum; for pEC50 serum: presence of 20% human serum

T1 sequence (Q969F8 whole entry): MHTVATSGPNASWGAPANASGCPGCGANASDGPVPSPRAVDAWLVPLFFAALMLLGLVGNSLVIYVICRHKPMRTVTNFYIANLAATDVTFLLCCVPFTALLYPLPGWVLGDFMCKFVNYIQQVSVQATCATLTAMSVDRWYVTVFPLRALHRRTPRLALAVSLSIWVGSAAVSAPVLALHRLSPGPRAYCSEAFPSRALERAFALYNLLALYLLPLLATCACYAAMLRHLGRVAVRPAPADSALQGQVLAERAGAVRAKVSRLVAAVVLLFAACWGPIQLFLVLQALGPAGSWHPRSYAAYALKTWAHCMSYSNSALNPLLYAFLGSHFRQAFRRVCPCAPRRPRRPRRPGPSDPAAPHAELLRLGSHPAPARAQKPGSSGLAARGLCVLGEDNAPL

CNC(=N)NCCC[C@H](NC(=O)[C@H](CC(C)C)NC(=O)NNC(=O)[C@H](Cc1ccccc1)NC(=O)[C@@H](NC(=O)[C@H](CC(N)=O)NC(=O)[C@H](Cc1c[nH]c2ccccc12)NC(=O)[C@H](CC(N)=O)NC(=O)[C@@H](Cc1ccc(O)cc1)Nc1c(NCCOCCOCCOCCO[C@H]2[C@H](OC)[C@@H](OC)[C@@H](O[C@H]3[C@H](OC)[C@@H](OC)[C@H](O[C@H]4[C@H](OS(=O)(=O)O)[C@@H](OS(=O)(=O)O)[C@@H](O[C@H]5[C@H](OC)[C@@H](OC)[C@H](O[C@H]6[C@H](OS(=O)(=O)O)[C@@H](OS(=O)(=O)O)[C@@H](OC)O[C@@H]6COS(=O)(=O)O)O[C@H]5C(=O)O)O[C@@H]4COS(=O)(=O)O)O[C@@H]3C(=O)O)O[C@@H]2COS(=O)(=O)O)c(=O)c1=O)[C@@H](C)O)C(=O)N[C@@H](Cc1ccccc1)C(N)=O [Conjugate C4]
pEC50: 10.14
pEC50 serum: 8.11

CNC(=N)NCCC[C@H](NC(=O)[C@H](CC(C)C)NC(=O)NNC(=O)[C@H](Cc1ccccc1)NC(=O)[C@@H](NC(=O)[C@H](CC(N)=O)NC(=O)[C@H](Cc1c[nH]c2ccccc12)NC(=O)[C@H](CC(N)=O)NC(=O)[C@@H](Cc1ccc(O)cc1)NC(=O)COCCOCCOCCOCCn1cc(CCC(=O)NCCOCCOCCOCCOCC(=O)NCCOCCOCCOCCO[C@H]2[C@H](OC)[C@@H](OC)[C@@H](O[C@H]3[C@H](OC)[C@@H](OC)[C@H](O[C@H]4[C@H](OS(=O)(=O)O)[C@@H](OS(=O)(=O)O)[C@@H](O[C@H]5[C@H](OC)[C@@H](OC)[C@H](O[C@H]6[C@H](OS(=O)(=O)O)[C@@H](OS(=O)(=O)O)[C@@H](OC)O[C@@H]6COS(=O)(=O)O)O[C@H]5C(=O)O)O[C@@H]4COS(=O)(=O)O)O[C@@H]3C(=O)O)O[C@@H]2COS(=O)(=O)O)nn1)[C@@H](C)O)C(=O)N[C@@H](Cc1ccccc1)C(N)=O [Conjugate C9]
pEC50: 9.66
pEC50 serum: 8.66

CNC(=N)NCCC[C@H](NC(=O)[C@H](CC(C)C)NC(=O)NNC(=O)[C@H](Cc1ccccc1)NC(=O)[C@@H](NC(=O)[C@H](CC(N)=O)NC(=O)[C@H](Cc1c[nH]c2ccccc12)NC(=O)[C@H](CC(N)=O)NC(=O)[C@@H](Cc1ccc(O)cc1)NC(=O)CCOCCOCCOCCOCCn1cc(CCC(=O)NCCOCCOCCOCCO[C@H]2[C@H](OC)[C@@H](OC)[C@@H](O[C@H]3[C@H](OC)[C@@H](OC)[C@H](O[C@H]4[C@H](OS(=O)(=O)O)[C@@H](OS(=O)(=O)O)[C@@H](O[C@H]5[C@H](OC)[C@@H](OC)[C@H](O[C@H]6[C@H](OS(=O)(=O)O)[C@@H](OS(=O)(=O)O)[C@@H](OC)O[C@@H]6COS(=O)(=O)O)O[C@H]5C(=O)O)O[C@@H]4COS(=O)(=O)O)O[C@@H]3C(=O)O)O[C@@H]2COS(=O)(=O)O)nn1)C(C)O)C(=O)N[C@@H](Cc1ccccc1)C(N)=O (stereo partly shown) [Conjugate C11]
pEC50: 9.76
pEC50 serum: 8.16

CNC(=N)NCCC[C@H](NC(=O)[C@H](CC(C)C)NC(=O)CNC(=O)[C@H](Cc1ccccc1)NC(=O)[C@@H](NC(=O)[C@H](CC(N)=O)NC(=O)[C@H](Cc1c[nH]c2ccccc12)NC(=O)[C@H](CC(N)=O)NC(=O)[C@@H](Cc1ccc(O)cc1)NC(=O)CCCCCCCCCCn1cc(CCC(=O)NCCOCCOCCOCCO[C@H]2[C@H](OC)[C@@H](OC)[C@@H](O[C@H]3[C@H](OC)[C@@H](OC)[C@H](O[C@H]4[C@H](OS(=O)(=O)O)[C@@H](OS(=O)(=O)O)[C@@H](O[C@H]5[C@H](OC)[C@@H](OC)[C@H](O[C@H]6[C@H](OC)[C@@H](OS(=O)(=O)O)[C@@H](OC)O[C@@H]6COS(=O)(=O)O)O[C@H]5C(=O)O)O[C@@H]4COS(=O)(=O)O)O[C@@H]3C(=O)O)O[C@@H]2COS(=O)(=O)O)nn1)[C@@H](C)O)C(=O)N[C@@H](Cc1ccccc1)C(N)=O [Conjugate C12]
pEC50: 9.95
pEC50 serum: 9.01

CNC(=N)NCCC[C@H](NC(=O)[C@H](CC(C)C)NC(=O)CNC(=O)[C@H](Cc1ccccc1)NC(=O)[C@@H](NC(=O)[C@H](CC(N)=O)NC(=O)[C@H](Cc1c[nH]c2ccccc12)NC(=O)[C@H](CC(N)=O)NC(=O)[C@@H](Cc1ccc(O)cc1)NC(=O)CCCCCCCCCCn1cc(CCC(=O)NCCOCCOCCOCCO[C@H]2[C@H](OC)[C@@H](OC)[C@@H](O[C@H]3[C@H](OC)[C@@H](OC)[C@H](O[C@H]4[C@H](OS(=O)(=O)O)[C@@H](OS(=O)(=O)O)[C@@H](O[C@H]5[C@H](OC)[C@@H](OC)[C@H](O[C@H]6[C@H](OS(=O)(=O)O)[C@@H](OS(=O)(=O)O)[C@@H](OC)O[C@@H]6COS(=O)(=O)O)O[C@H]5C(=O)O)O[C@@H]4COS(=O)(=O)O)O[C@@H]3C(=O)O)O[C@@H]2COS(=O)(=O)O)nn1)[C@@H](C)O)C(=O)N[C@@H](Cc1ccccc1)C(N)=O [Conjugate C13]
pEC50: 9.47
pEC50 serum: 8.33

CNC(=N)NCCC[C@H](NC(=O)[C@H](CC(C)C)NC(=O)CNC(=O)[C@H](Cc1ccccc1)NC(=O)[C@@H](NC(=O)[C@H](CC(N)=O)NC(=O)[C@H](Cc1c[nH]c2ccccc12)NC(=O)[C@H](CC(N)=O)NC(=O)[C@@H](Cc1ccc(O)cc1)NC(=O)CCCCn1cc(CCC(=O)NCCOCCOCCOCCO[C@H]2[C@H](OC)[C@@H](OC)[C@@H](O[C@H]3[C@H](OC)[C@@H](OC)[C@H](O[C@H]4[C@H](OS(=O)(=O)O)[C@@H](OS(=O)(=O)O)[C@@H](O[C@H]5[C@H](OC)[C@@H](OC)[C@H](O[C@H]6[C@H](OS(=O)(=O)O)[C@@H](OS(=O)(=O)O)[C@@H](OC)O[C@@H]6COS(=O)(=O)O)O[C@H]5C(=O)O)O[C@@H]4COS(=O)(=O)O)O[C@@H]3C(=O)O)O[C@@H]2COS(=O)(=O)O)nn1)[C@@H](C)O)C(=O)N[C@@H](Cc1ccccc1)C(N)=O [Conjugate C14]
pEC50: 9.35
pEC50 serum: 8.08

CNC(=N)NCCC[C@H](NC(=O)[C@H](CC(C)C)NC(=O)CNC(=O)[C@H](Cc1ccccc1)NC(=O)[C@@H](NC(=O)[C@H](CC(N)=O)NC(=O)[C@H](Cc1c[nH]c2ccccc12)NC(=O)[C@H](CC(N)=O)NC(=O)[C@@H](Cc1ccc(O)cc1)NC(=O)CCOCCOCCOCCOCCn1cc(CCC(=O)NCCOCCOCCOCCO[C@H]2[C@H](OC)[C@@H](OC)[C@@H](O[C@H]3[C@H](OC)[C@@H](OC)[C@H](O[C@H]4[C@H](OS(=O)(=O)O)[C@@H](OS(=O)(=O)O)[C@@H](O[C@H]5[C@H](OC)[C@@H](OC)[C@H](O[C@H]6[C@H](OS(=O)(=O)O)[C@@H](OS(=O)(=O)O)[C@@H](OC)O[C@@H]6COS(=O)(=O)O)O[C@H]5C(=O)O)O[C@@H]4COS(=O)(=O)O)O[C@@H]3C(=O)O)O[C@@H]2COS(=O)(=O)O)nn1)[C@@H](C)O)C(=O)N[C@@H](Cc1ccccc1)C(N)=O [Conjugate C15]
pEC50: 9.24
pEC50 serum: 8.08

CNC(=N)NCCC[C@H](NC(=O)[C@H](CC(C)C)NC(=O)CNC(=O)[C@H](Cc1ccccc1)NC(=O)[C@@H](NC(=O)[C@H](CC(N)=O)NC(=O)[C@H](Cc1c[nH]c2ccccc12)NC(=O)[C@H](CC(N)=O)NC(=O)[C@@H](Cc1ccc(O)cc1)NC(=O)CCOCCOCCOCCOCCn1cc(CCC(=O)NCCOCCOCCOCCO[C@H]2[C@H](OC)[C@@H](OC)[C@@H](O[C@H]3[C@H](OC)[C@@H](OC)[C@H](O[C@H]4[C@H](OS(=O)(=O)O)[C@@H](OS(=O)(=O)O)[C@@H](O[C@H]5[C@H](OC)[C@@H](OC)[C@H](O[C@H]6[C@H](OC)[C@@H](OS(=O)(=O)O)[C@@H](OC)O[C@@H]6COS(=O)(=O)O)O[C@H]5C(=O)O)O[C@@H]4COS(=O)(=O)O)O[C@@H]3C(=O)O)O[C@@H]2COS(=O)(=O)O)nn1)[C@@H](C)O)C(=O)N[C@@H](Cc1ccccc1)C(N)=O [Conjugate C16]
pEC50: 9.43
pEC50 serum: 8.63
